Laboratory results taken from PubChem BioAssay AID1240 (Sanford-Burnham Center for Chemical Genomics, 2008).
Out of some 50,000 compounds screened, about 800 (1.6%) showed an effect of 50% or more. The list shows a part of the results.

target: Bcl-2-like protein 10 (Homo sapiens) (UniProt Q9HD36); assay: Phenotype converters, Bcl-B/TR3 peptide binding displacement, primary biochemical FP (AID 1240); conditions: GST-Bcl-B / FITC-TR3 peptide fluorescence polarization; stronger effect = higher value; compound at 3.75 mg/L;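 also: 0% = Bcl-B with tracer peptide and DMSO and 100% = tracer peptide lacking Bcl-B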
Chain of UniProt Q9HD36 (Q9HD36 whole entry, looked up): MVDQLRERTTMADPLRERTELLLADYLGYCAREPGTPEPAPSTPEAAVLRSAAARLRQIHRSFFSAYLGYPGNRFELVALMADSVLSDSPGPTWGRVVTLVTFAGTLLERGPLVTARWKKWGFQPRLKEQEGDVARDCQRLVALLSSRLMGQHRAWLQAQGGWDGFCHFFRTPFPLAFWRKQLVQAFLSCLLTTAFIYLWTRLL

| SMILES | displacement [%] |
| --- | --- |
| O=S(=O)(Nc1ccc(Cl)cn1)c1ccc(-c2ccccc2)cc1 | -8.9 |
| COc1ccc(CCNc2cc(N3CCN(CCO)CC3)ccc2[N+](=O)[O-])cc1OC | 11.7 |
| COc1cc(OC)cc(C(=O)N/N=C(\C)CC(=O)Nc2ccccc2C(F)(F)F)c1 | -24.7 |
| NC(=O)c1ccc(NC(=O)NCCCCCCNC(=O)Nc2ccc(C(N)=O)cc2)cc1 | 5.9 |
| COc1ccccc1C1=N/C(=C\c2ccc([N+](=O)[O-])cc2)C(=O)O1 | 27.4 |
| COc1ccc(S(=O)(=O)/N=C2\C=C(Br)C(=O)c3ccccc32)cc1 | -9.7 |
| O=C(CSCc1cccc(Br)c1)Nc1cccc2cccnc12 | -0.7 |
| Cc1cc(=O)oc2cc(OCc3ccccc3)c(O)cc12 | 12.9 |
| COC(=O)C1=C(C)N(CCc2ccc(OC)c(OC)c2)C(=O)/C1=C\c1ccc(O)cc1 | 7.1 |
| CC(C1CC1)N(Cc1ccccc1)C(=O)Nc1ccccc1Cl (stereo unspecified) | -3.9 |
| Cc1ccc(N2C(=O)CC(C(C)c3ccccc3)C2=O)c(Br)c1 (stereo unspecified) | 4.1 |
| COc1ccc2c(c1OC)C(=O)N(c1ccc(I)cc1)C2 | -11.8 |
| O=S1(=O)CCC(NC(=S)N/N=C/c2ccc(-c3ccc(Cl)cc3Cl)o2)C1 (stereo unspecified) | 14.1 |
| CCCCCCCSc1n[nH]c(=O)[nH]c1=S | 8.5 |
| COc1ccc(C2CC(c3ccc(F)cc3)=NN2c2ccccc2)cc1OC (stereo unspecified) | 64.4 |
| COc1ccc(/C(C)=N/NC(=O)c2cc(C34CC5CC(CC(C5)C3)C4)[nH]n2)cc1 | -1.3 |

| SMILES | displacement [%] |
| --- | --- |
| O=C(/C=C/c1ccco1)NC(=S)NCc1ccccc1 | 11.6 |
| CCCC(C)NS(=O)(=O)c1ccccc1 (stereo unspecified) | -12.3 |
| COc1ccc(Br)cc1/C=C/C(=O)Nc1ccc(N2CCCCC2)cc1 | -0.7 |
| Cc1ccc(N2C(=O)NC(=O)/C(=C\c3cccs3)C2=O)cc1C | -5.2 |
| CC(C)COc1ccc(C(=O)NCC2(c3ccccc3)CCCC2)cc1 | -18.7 |
| Brc1ccccc1-c1nc2ccccc2[nH]1 | 4.1 |
| CCC(C)NC(=O)c1c(-c2ccccc2Cl)noc1C (stereo unspecified) | -2.2 |
| COc1ccc(C(=O)NCCSc2ccc(C)cc2)cc1OC | 0.5 |
| COc1ccccc1N1C(=O)CC(N2CCN(c3ccccn3)CC2)C1=O (stereo unspecified) | -26.1 |
| CCN(CC)COc1ccc2occ(C(=O)c3cc(OC)ccc3OC)c2c1 | 6.7 |
| Cn1c(O)c(C=NCC2CCCO2)c(=O)n(C)c1=O (stereo unspecified) | -3.5 |
| N#Cc1ccc(-c2ccccc2)[nH]c1=S | -5.4 |
| O=C(O)C1C2C=CC3(CN(Cc4ccccc4)C(=O)C13)O2 (stereo unspecified) | 4.4 |
| CC(=O)C(=Nc1ccc(C)cc1C)NNc1cc(C(N)=O)c(Cl)cc1Cl | 3.9 |
| COc1ccc(-n2cnc(/N=C/N(C)C)c2C(=O)c2cccc([N+](=O)[O-])c2)cc1 | -6.1 |
